Assay results published in PubChem BioAssay AID686979 (National Center for Advancing Translational Sciences (NCATS), 2013).
“And” between values parts separate entries of the source, which are not always exact repeats. Equal entries are not always repeated. Among all 420,000 compounds or so, about 50,000 (12%) were called active. This list was built around the results that the source calls inconclusive (neither active nor inactive); the mix of calls is not that of the screen. Calls come from the whole dose curve; as a rule, active = well fitted inhibition curve with a large enough effect; inconclusive = small, poorly fitted or top-dose-only effect; inactive = flat fitted curve, though single readings scatter. Potencies of inconclusive entries are doubtful fits and often do not repeat.

Experiment: qHTS for Inhibitors of human tyrosyl-DNA phosphodiesterase 1 (TDP1): qHTS in cells in presence of CPT; note: nearly all actives have a fitted effect of over 55% in size
Details: chicken DT40 Tdp1-/-;hTDP1 cells + 20 nM CPT, ATP luminescence, 48 h; activity change, negative = growth inhibition: at 46.2 µM (top of the series) unless noted
Method in brief: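 Chicken DT40 Tdp1-/- cells stably complemented with human TDP1 were seeded at 400 cells/well in medium containing 20 nM camptothecin, exposed to pin-transferred compounds, and grown at 37 °C for at least 48 hr. Viability was read as ATP luminescence.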
% is set by controls: 0 for no effect and ±100 for the full control effect; potency is the fitted concentration of half-maximal effect; tags give direction and shape of the fitted curve.

SMILES	activity change, negative = growth inhibition	Potency
O=C(COC(=O)c1cccs1)NC12CC3CC(CC(C3)C1)C2	inactive: 16.8%	–
Cn1c(C(=O)NCc2ccc(F)cc2)cc2c(=O)n(C)c3ccccc3c21	inactive: 5.29%	–
CCOC(=O)c1c(NC(=O)c2ccoc2C)sc(C(=O)N(C)C)c1C	inactive: -28.2%	–
Cc1ccccc1NC(=O)C(Cl)=C(Cl)Cl	–	active: 20.6 µM
O=C(CSc1nc2nn(-c3ccccc3)c(=O)c-2c2n1CCCCC2)c1ccc(O)c(O)c1	–	inconclusive: 29.1 µM [inhibitor, single point]
CCOC(=O)c1ccc(NC(=O)Nc2ccc3c(c2)OCCO3)cc1	–	inconclusive: 29.1 µM [inhibitor, single point]
COc1ccccc1N(Cc1ccccc1)S(=O)(=O)c1cccc(C(=O)NCC2CCCO2)c1 (centres undefined)	–	inconclusive: 29.1 µM [inhibitor, single point]
C/C(=N\n1c(C)nc2ccccc2c1=O)c1ccc(N)cc1	–	inconclusive: 29.1 µM [inhibitor, single point]
COc1ccc(CC(=O)N(C)CC(=O)Nc2ccc(F)cc2)cc1S(=O)(=O)N1CCOCC1	inactive: -0.335%	–
CC(=O)NC1=NN(C(C)=O)C(C)(CS(=O)(=O)c2ccc3ccccc3c2)S1 (centres undefined)	–	inconclusive: 20.6 µM [inhibitor, single point]
O=C(COC(=O)/C=C/c1cccc(C(F)(F)F)c1)NCCN1C(=O)CSC1=O	inactive: 0.86%	–
CSCCC(NS(=O)(=O)c1ccc(Cl)cc1)C(=O)OCC(=O)NC1CCCCC1 (centres undefined)	inactive: -9.75%	–
COc1ccc(C(=O)NCCc2sc(-c3cccc(F)c3)nc2C)cc1	–	active: 23.1 µM
O=C(CN1CCc2ccccc2C1)Nc1cc(S(=O)(=O)N2CCOCC2)ccc1N1CCCC1	–	active: 14.6 µM
CCCn1c(CCC(=O)O)ccc1-c1ccccc1	–	inconclusive: 29.1 µM [inhibitor, single point]
COCCn1c(SCC(=O)Nc2ccc(F)c(Cl)c2)nc2c(oc3ccccc32)c1=O	–	active: 5.17 µM
COCCCNCCOCCOc1c(OC)cccc1OC	–	inconclusive: 14.6 µM [inhibitor, partial curve]
C[C@@H](N)C1CCC(C(=O)Nc2ccncc2)CC1 (some centres undefined)	–	inconclusive: 25.1 µM [inhibitor, partial curve, poor fit]
CCC1Oc2ccc(C)cc2N(CC(=O)N(Cc2ccncc2)Cc2ccco2)C1=O (centres undefined)	inconclusive: -33.4% [inhibitor]	–
CN(C)C1=NC[C@H](Cc2ccccc2)N1CC1CCCCC1	–	active: 13 µM
CCOc1ccc(NS(=O)(=O)c2ccc(C(=O)N(C)CC(=O)Nc3ccc(C)cc3)cc2)cc1	–	inconclusive: 23.1 µM [inhibitor, single point]
COc1cc(/C=C/c2ccc(O)cc2)cc(OC)c1	–	inconclusive: 25.9 µM [inhibitor, single point]
Cc1nc2ccn(Cc3cccnc3)c(=O)c2cc1C(=O)Nc1ccc(OC(F)(F)F)cc1	–	inconclusive: 29.1 µM [inhibitor, single point]

SMILES	activity change, negative = growth inhibition	Potency
Cc1ccc(C(=O)Nc2ccccc2Oc2ccccc2)cc1[N+](=O)[O-]	–	inconclusive: 15.8 µM [inhibitor, single point]
COCCCn1c2nc3ccccc3nc2c2c(=O)n(Cc3ccc(Cl)cc3)cnc21	–	inconclusive: 16.4 µM [inhibitor, single point]
Cc1cnc(C(=O)NC2CC(C)(C)Cc3c2cnn3-c2ccccc2)cn1 (centres undefined)	–	inconclusive: 20.6 µM [inhibitor, single point]
Cc1cccc(NC(=O)CSc2cccc3cccnc23)c1	–	inconclusive: 29.1 µM [inhibitor, single point]
O=C(Nc1ccccc1C(=O)OCc1cc(=O)n2nc(C3CC3)sc2n1)c1cccc(Cl)c1	inactive: -9.94%	–
CN1CCN(C2=C(Cl)C(=O)N(C3CCCCC3)C2=O)CC1	–	inconclusive: 29.1 µM [inhibitor, single point]
O=C(COC(=O)/C=C/c1cccc(F)c1)NC(=O)NCc1ccccc1	inactive: -21.4%	–
O=C(Nc1cc(-c2ccccc2)cs1)c1ccco1	–	inconclusive: 20.6 µM [inhibitor, single point]
COc1ccc(C2c3c(-c4ccccc4O)n[nH]c3C(=O)N2Cc2ccco2)cc1 (centres undefined)	–	inactive and inconclusive: 29.1 µM [inhibitor, single point]
COc1cccc(C(=O)NC(=O)Nc2ccc(-c3cc(C(F)(F)F)nn3-c3ccccc3)cc2)c1	–	inconclusive: 14.6 µM [inhibitor, partial curve]
COC(=O)[C@]12CCCCC=C1N(Cc1ccc3c(c1)OCO3)C(=O)[C@H](CC(=O)N1CCC(c3ccccc3)CC1)C2	–	inconclusive: 29.1 µM [inhibitor, single point]
C/C(=N/NC(=O)c1sc(NS(=O)(=O)c2ccccc2)nc1C)c1ccc(F)cc1	–	inconclusive: 23.1 µM [inhibitor, single point]
Cc1oc(-c2cccc(Cl)c2)nc1CS(=O)(=O)CC(=O)NCCCN1CCOCC1	inactive: 12.9%	–
CCOC(=O)Nc1ccc2c(c1)N(C(=O)CN)c1ccccc1CC2	–	inconclusive: 13 µM [inhibitor, single point]
Cc1cccc(C(=O)N(c2ccccn2)C(C)c2ccco2)c1 (centres undefined)	–	inconclusive: 20.6 µM [inhibitor, single point]
O=C(Nc1ccc(F)cc1F)c1cccn1-c1ncc(C(F)(F)F)cc1Cl	inconclusive: -34.3% [inhibitor]	–
COc1ccc(CCC(C)NCc2ccc(C(F)(F)F)cc2)cc1 (centres undefined)	–	inconclusive: 29.1 µM [inhibitor, single point]
CSc1nc(NC(C)(C)C)nc(Oc2ccc(=O)n(C)n2)n1	inactive: -12.2%	–
CCOC(=O)C1CCCN(C2=NC(=O)/C(=C/c3ccc(OC)cc3)S2)C1 (centres undefined)	–	inconclusive: 29.1 µM [inhibitor, single point]
NC(=O)c1ccccc1NC(=O)/C=C/c1ccc(Cl)cc1	–	inconclusive: 20.6 µM [inhibitor, single point]
COc1cccc(/C=C2/Sc3ccc(C(=O)NCCN4CCCC4)cc3NC2=O)c1	–	active: 16.4 µM
CC(C)CC(c1nnnn1Cc1ccco1)N1CCN(c2cccc(Cl)c2)CC1 (centres undefined)	–	inconclusive: 29.1 µM [inhibitor, single point]
CCOC(=O)NC(=O)/C(C#N)=C\NNc1ncc(C(F)(F)F)cc1Cl	inactive: 23.3%	–

SMILES	activity change, negative = growth inhibition	Potency
CC(C)Oc1ccc(C(=O)/C(=C\c2cccs2)c2nc3ccccc3o2)cc1	–	inconclusive: 29.1 µM [inhibitor, single point]
Cc1ccc(NS(=O)(=O)c2ccc(OCC(=O)Nc3cccc([N+](=O)[O-])c3)c(C)c2)cc1	–	inconclusive: 18.4 µM [inhibitor, single point]
CN(CCc1ccccc1)C(=O)c1ccc(NC(=O)Cc2ccc(NC(=O)C3CCN(C(=O)C4CCCC4)CC3)cc2)cc1	–	active: 16.4 µM
O=C(Nc1cccc2ccccc12)N1CCc2ccccc2C1	–	inconclusive: 13 µM [inhibitor, partial curve]
Cn1c(Nc2cccc(Cl)c2)nc2ccccc21	inactive: -28.2%	–
Cn1c(SCC(=O)c2ccc(-c3ccccc3)cc2)nnc1-c1ccco1	inactive: -24.3%	–
COc1ccc(-c2c(C)nn3c4c(cnc23)C(=O)CC(c2ccc(C)cc2)C4)cc1 (centres undefined)	inactive: -5.95%	–
COc1ccc(C(=O)n2cc(C(=O)c3cc(C)ccc3O)cn2)cc1OC	–	inconclusive: 23.1 µM [inhibitor, single point]
CCN(CC)CCC(c1ccc2c(c1)OCO2)c1c(OC)cc(OC)c2ccc(=O)oc12 (centres undefined)	–	active: 13 µM
Cc1ccc(CSCC(=O)N2CCN(Cc3ccc4c(c3)OCO4)CC2)cc1	–	inconclusive: 29.1 µM [inhibitor, single point]
CCN(c1cccc(C)c1)S(=O)(=O)c1nnc(NC(=O)c2cccs2)s1	–	inconclusive: 16.4 µM [inhibitor, single point]
O=C1CC(/C=C/c2ccc(Cl)cc2)=Nc2ccccc2N1	–	inconclusive: 18.4 µM [inhibitor, single point]
Cc1c(C(=O)Nc2ccccc2Br)oc2ccc(S(=O)(=O)N3CCCCC3)cc12	–	inconclusive: 5.8 µM [inhibitor, full curve]
CCOc1cc(N2CCOCC2)c(OCC)cc1NCC(=O)N1CCN(Cc2ccccc2)CC1	–	inconclusive: 29.1 µM [inhibitor, single point]
Cc1cccc(Cn2c(CN3CCC(C(=O)NCCc4ccccc4)CC3)cc3ccccc32)c1	–	inconclusive: 29.1 µM [inhibitor, single point]
COCCNC(=O)/C(C#N)=C/c1cc(C(C)C)c(OC)cc1C	–	inconclusive: 18.4 µM [inhibitor, single point]
CCN(CC(=O)NCc1cccs1)C(=O)c1cccc(S(=O)(=O)Nc2ccc(OC)cc2)c1	inactive: -21.7%	–
O=C(/C=C/c1ccc2c(c1)OCO2)Nc1nc2ccccc2s1	–	inconclusive: 25.9 µM [inhibitor, single point]
COc1ccc(N2C(=O)CC(Sc3nnc(-c4ccccc4F)n3C)C2=O)cc1 (centres undefined)	–	active: 4.11 µM
CCOC(=O)CN[C@H]1CCC2C3CC=C4C[C@@H](O)CC[C@]4(C)C3CC[C@@]21C (some centres undefined)	–	inconclusive: 25.9 µM [inhibitor, single point]
COc1cc(Cn2c(-c3ccc(O)c(OC)c3)nc3ccccc32)ccc1O	inactive: 0.0619%	–
CC1(C(=O)NCc2cccnc2)CCN1C(=O)Cc1cccs1 (centres undefined)	inactive: -0.493%	–
Cc1ccc(NS(=O)(=O)c2cccc(C(=O)Nc3cc(C)on3)c2)cc1	–	inconclusive: 20.6 µM [inhibitor, single point]
